The results in this text go back to PubChem BioAssay AID463173 (ICCB-Longwood Screening Facility, Harvard Medical School, 2010).

Each structure is given as a SMILES string. The whole screen tested about 52,000 compounds, of which about 4,300 (8.3%) were called active. Cut-off read from the data, not from the text of the source: active = survival mostly below about 52% (no sharp cut-off); inactive = mostly above about 56%. Some of the results follow.

This assay concerns DeltatarO mutant. Description: growth inhibition of S. aureus wild type versus tarO mutant, primary screen, teichoic acid synthesis inhibitors, RN4220, OD600 (AID 463173). Conditions: OD600, 18 h, stronger effect = lower value, screened at 18.75 µg/mL (by protocol).
In the case of `CCCn1c(SCc2nc(-c3ccc(OC)cc3OC)no2)nnc1-c1ccc(Cl)cc1`, the survival is inactive: 53%.

In the case of `CCC1CN(C(=O)N2CCC(C(=O)NCCc3ccc(Cl)cc3)CC2)c2ccccc2O1` (stereo unspecified), the survival is inactive: 60%.

Take `COc1ccc(NC(=O)Cn2nnc(C(=O)Nc3ccc(F)c(Cl)c3)c2N)cc1OC`: the survival is active: 37%.

Take `Cc1ccc(NC(=O)Cn2cc(C(=O)C3CC3)c3ccccc32)cc1`: the survival was inactive: 148%.

As to `COc1ccc(-c2noc(CN(C(=O)COc3cc(C)c(Br)c(C)c3)C(C)C)n2)cc1`, the survival is active: 31%.

`Cn1c(SCc2ccc(F)cc2)nc2ccc(C(=O)NCc3ccc(Cl)cc3)cc21`: the survival was inactive: 50%.

With `CCOc1ccc(N(C(=O)CC(C)C)S(=O)(=O)c2ccc3c(c2)oc(=O)n3C)cc1`, the survival is inactive: 46%.

As to `Cc1ccc(-c2nc3scc(CCNC(=O)Cc4ccc(Cl)cc4)n3n2)cc1`, the survival is inactive: 85%.

For `COc1ccc(CCNC(=O)CCCn2c(=O)c3ccccc3n(Cc3cccc(Cl)c3)c2=O)cc1OC`, the survival is inactive: 72%.

For `CCC(=O)Nc1c(C(=O)N2CCN(c3ccc(F)cc3)CC2)oc2ccccc12`, the survival is inactive: 70%.

For `CCOc1ccc(CC(=O)NCCc2csc(-c3ccc(C)cc3)n2)cc1`, the survival is inactive: 88%.

On to `COc1ccc(CCNS(=O)(=O)c2ccc3c(c2)CC(C)N3C(=O)C2CCC2)cc1OC` (stereo unspecified), for which the survival was inactive: 68%.

`O=C(/C=C/c1ccccc1)N1CCN(CCN2C(=O)C3C4C=CC(C4)C3C2=O)CC1` (stereo unspecified): the survival was inactive: 70%.

Regarding `COc1ccc(S(=O)(=O)n2nc(C)c(S(=O)(=O)N3CCC(C)CC3)c2C)cc1C`, the survival is inactive: 90%.

For `N#C/C(=C/c1ccc(N2CCCCC2)o1)C(=O)NCCc1c[nH]c2ccccc12`, the survival is inactive: 76%.

On to `CCOC(=O)c1ccc(NC(=O)c2c(NC(C)=O)sc3c2CCC(C)C3)cc1` (stereo unspecified), for which the survival was inactive: 47%.

On to `CCOc1ccc(CCNC(=O)c2ccc3c(Cl)c4c(nc3c2)CCCC4)cc1`, for which the survival is inactive: 59%.

As to `O=S(=O)(NCCc1nnc2ccc(SCc3ccc(Cl)cc3Cl)nn12)c1ccccc1`, the survival was active: 37%.

For `Cc1ccc(CNC(=O)c2ccc3nc(N4CCCCC4)sc3c2)cc1`, the survival is inactive: 89%.

Turning to `COc1cccc(C(c2sc3nc(-c4ccco4)nn3c2O)N2CCC(O)CC2)c1` (stereo unspecified), the survival is inactive: 120%.

Consider `CCOc1ccccc1NC(=O)c1sc2nc3n(c(=O)c2c1C)CCCCC3`, for which the survival was inactive: 45%.

For the compound `COCCOC(=O)c1c(C)n(S(=O)(=O)c2ccc(C)cc2)c2ccc(NS(=O)(=O)c3ccc(C)cc3)cc12`, the survival is inactive: 66%.

In the case of `COC(=O)c1scc(-c2ccc(C)cc2)c1S(=O)(=O)Nc1cc(Cl)ccc1C`, the survival was inactive: 88%.

In the case of `Cn1c(=O)c(=O)n(C)c2cc(N3CCOCC3)c(NS(=O)(=O)c3ccc(Cl)cc3)cc21`, the survival was active: -1%.

For `Cc1nn(Cc2ccc(F)cc2)c(C)c1NC(=O)c1cc(CC(C)C)on1`, the survival is inactive: 52%.

As to `CCc1ccc(S(=O)(=O)c2cn(CC(=O)Nc3ccc(C)cc3)c3ccccc3c2=O)cc1`, the survival was inactive: 73%.

Consider `NC(N)=Nc1nc2cc(Cl)ccc2o1`, for which the survival was inactive: 69%.

For `COc1ccccc1NCc1cccn1-c1nnc(N2CCOCC2)s1`, the survival was inactive: 94%.

Turning to `Cc1oc2ncn(C)c(=O)c2c1C(=O)NC(C)c1ccccc1` (stereo unspecified), the survival was inactive: 109%.

Regarding `O=c1[nH]c2ccccc2cc1CNc1ccccc1`, the survival was inactive: 94%.

In the case of `O=C(CSC1=Nc2ccccc2N=C(c2ccc(F)cc2)C1)NCc1ccc(F)cc1`, the survival was inactive: 75%.

For `Cc1ccc(C)c(CN2C(=O)CSc3ccc(C(=O)NCc4ccc(F)cc4)cc32)c1`, the survival was active: 46%.

In the case of `Cc1ccc(CSCc2ccc(C(=O)NCCc3ccc(Cl)cc3)o2)cc1`, the survival is inactive: 78%.

For the compound `CC(C)Oc1ccc(CNC(=O)CN2C(=O)CCc3cc(S(=O)(=O)N4CCCCC4)ccc32)cc1`, the survival was inactive: 87%.

As for `Cc1cc(C)cc(N2C(=O)CSC23C(=O)N(CC(=O)NCCc2ccccc2)c2ccccc23)c1` (stereo unspecified), the survival is inactive: 71%.

For `CC(=O)Oc1ccc(C(=O)NC2CCSC2=O)cc1` (stereo unspecified), the survival is inactive: 72%.

For `CN(C(=O)c1ccc2c(c1)N(Cc1cccc(Cl)c1)C(=O)c1ccccc1S2=O)C1CCCCC1` (stereo unspecified), the survival is inactive: 101%.

With `CCOC(=O)C1=C(CS(=O)(=O)c2ccc(C)cc2)NC(=O)NC1c1ccc(C(C)C)cc1` (stereo unspecified), the survival was inactive: 81%.

As to `COc1ccc(NC(=O)CCS(=O)(=O)c2cccc3nonc23)cc1Cl`, the survival is inactive: 68%.

Regarding `O=C(Nc1cc2c(cc1C(=O)c1ccccc1Cl)OCCO2)c1ccc(Br)cc1`, the survival is inactive: 66%.

As for `Cc1nc2c(-c3ccccc3)c(C)nn2c(C)c1CCC(=O)NCc1ccccc1Cl`, the survival was inactive: 56%.

`Cc1ccc(CSc2nc3cccnc3n2Cc2ccc(C(=O)NCCc3ccccc3)cc2)cc1`: the survival was inactive: 70%.

Take `CCC(=O)N1c2nc(-c3ccco3)nn2C2(CCCCC2)[C@@H]2CCCC[C@@H]21`: the survival was inactive: 111%.

Take `O=C(c1cccc(Br)c1)N1CCN(Cc2cc(=O)n3nc(-c4ccccc4)sc3n2)CC1`: the survival is inactive: 82%.

In the case of `COc1ccc(N2CCN(C(CNC(=O)C(=O)NCCCN(C)C)c3cccnc3)CC2)cc1` (stereo unspecified), the survival is inactive: 57%.

Consider `CCOc1c(Cl)cc(Cl)cc1CNCCSc1nnnn1C`, for which the survival was inactive: 123%.

Regarding `O=C(CN1C2=NCCN2c2ccccc21)C12CC3CC(CC(C3)C1)C2`, the survival is inactive: 117%.

Regarding `O=S(=O)(CCc1nc2ccccc2s1)c1ccc(Cl)cc1`, the survival was inactive: 95%.

`O=C(CCC(=O)OCC(=O)c1ccc(Cl)cc1)Nc1ccc(Oc2ccccc2)cc1`: the survival was inactive: 125%.

On to `CCCn1cc(S(=O)(=O)c2cc(C)ccc2C)c(=O)c2cc(F)c(N3CCOCC3)cc21`, for which the survival is inactive: 102%.

On to `Cn1c(C(=O)N(Cc2ccccc2)Cc2cccs2)cc2sccc21`, for which the survival is inactive: 100%.

For the compound `COC(=O)c1c(SCC(=O)Nc2cc(C)cc(C)c2)[nH]c2ccccc2c1=O`, the survival is active: 39%.

Turning to `CCc1ccc2occ(CC(=O)Nc3c(C(=O)Nc4ccc(C)cc4)oc4ccccc34)c2c1`, the survival was inactive: 105%.

Turning to `Cc1ccc(-n2nnnc2CNC(=O)c2ccccc2S(C)(=O)=O)cc1C`, the survival was inactive: 92%.

As to `CCOC(=O)c1[nH]c(C)c(Cc2ccc(OCC)cc2)c1C`, the survival is inactive: 82%.

Turning to `COc1ccc(-c2cn3nc(N4CCCC(C(=O)Nc5ccc(C)c(C)c5)C4)sc3n2)cc1` (stereo unspecified), the survival is inactive: 66%.
